Laboratory results from PubChem BioAssay AID2147 (National Center for Advancing Translational Sciences (NCATS), 2009).
Screen size: about 230,000 compounds; about 3,600 (1.6%) were called active. This list was built around the results that the source calls inconclusive (neither active nor inactive); the mix of calls is not that of the screen. The call rests on the fitted dose curve; in most records, active means well fitted inhibition curve with a large enough effect (not every such curve was filed as active); inconclusive means small, poorly fitted or top-dose-only effect, or another doubt; inactive means no such curve, though single readings can be large or run the other way. Potencies beside an inconclusive call are fits to weak or partial responses and may not hold up.

target: Lysine-specific demethylase 4E (Homo sapiens) (UniProt B2RXH2); experiment: qHTS Assay for Inhibitors of Human Jumonji Domain Containing 2E (JMJD2E); conditions: JMJD2E catalytic domain, FDH-coupled NADH fluorescence (FDH is formaldehyde dehydrogenase); series mostly up to 57.1 µM; activity change, negative = inhibition: at the top concentration
Sequence of UniProt B2RXH2 (B2RXH2 whole entry, looked up, the tested form may be a part): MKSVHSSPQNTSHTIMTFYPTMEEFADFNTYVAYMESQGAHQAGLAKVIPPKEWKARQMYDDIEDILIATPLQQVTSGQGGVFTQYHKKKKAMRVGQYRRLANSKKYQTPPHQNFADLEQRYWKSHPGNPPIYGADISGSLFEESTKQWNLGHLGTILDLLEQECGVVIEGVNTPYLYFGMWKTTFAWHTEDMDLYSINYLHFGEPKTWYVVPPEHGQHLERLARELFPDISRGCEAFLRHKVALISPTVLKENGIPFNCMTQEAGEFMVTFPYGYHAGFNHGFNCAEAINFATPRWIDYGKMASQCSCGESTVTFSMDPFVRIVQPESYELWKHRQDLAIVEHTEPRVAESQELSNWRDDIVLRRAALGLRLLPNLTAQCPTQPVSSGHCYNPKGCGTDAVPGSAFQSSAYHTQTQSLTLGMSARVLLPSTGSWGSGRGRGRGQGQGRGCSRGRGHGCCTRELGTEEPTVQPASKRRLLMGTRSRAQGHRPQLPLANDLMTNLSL
Further: nearly all actives have a fitted effect of over 50% in size.
Potency means the concentration at half of the fitted maximal effect; tags describe the fitted curve by direction and shape.
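Wherever activity change, negative = inhibition is given: 0% = wells with enzyme and -100% = buffer wells without enzyme.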

SMILES | Potency | activity change, negative = inhibition
On1c(-c2ccccc2)nc2ccc(Cl)cc21 | inconclusive: 39.8 µM [inhibitor, single point] | –
O=C(CCCCCn1c(=O)[nH]c2ccsc2c1=O)N1CCCCC1 | – | inactive: 1.58%
COc1ccc(NC(=S)NC(NC(=O)c2cccc3ccccc23)C(Cl)(Cl)Cl)c([N+](=O)[O-])c1 (stereo not given) | – | inactive: -29.4%
O=S(=O)(Nc1nc2ccc(S(=O)(=O)N3CCCC3)cc2s1)c1ccc(F)cc1 | inconclusive: 39.8 µM [inhibitor, single point] | –
Cc1cc(S(=O)(=O)Nc2ccccc2C(=O)O)ccc1Cl | – | inactive: -3.33%
COc1ccc(-n2nc(C(=O)NCC(=O)N3CCN(c4ccccn4)CC3)c3ccccc3c2=O)cc1 | inconclusive: 31.6 µM [inhibitor, single point] | –
O=C(C1=C(O)C(=O)N(Cc2ccccc2)C1c1ccncc1)c1ccco1 (stereo not given) | inconclusive: 39.8 µM [inhibitor, single point] | –
CC1CC[C@@]2(OC1)OC1CC3C4CC[C@H]5CC(O)CC[C@@]5(C)C4CC[C@]3(C)C1C2C (stereo not given in full) | inconclusive: 31.6 µM [inhibitor, single point] | –
COc1ccccc1/C=C/C(=O)NCc1ccccn1 | inconclusive: 31.6 µM [inhibitor, partial curve] | –
COc1cccc(-c2nc3sc4c(c3c(=O)[nH]2)CCCCC4)c1 | inconclusive: 1.12 µM [inhibitor, single point] | –
COCCN(C(=O)Cn1nnc2ccccc21)C(C(=O)NC1CCCC1)c1ccc(OC)cc1OC (stereo not given) | – | inactive: 5.2%
COc1ccc2cc(CN(Cc3ccco3)C(c3nnnn3C3CCCCC3)C(C)C)c(=O)[nH]c2c1 (stereo not given) | – | inactive: -8.84%
CCc1cccc(NC(=O)c2ccc(Br)o2)c1 | – | inactive: 14.7%
COc1ccc(CNC(=O)c2c([S-])n(-c3ccc(C)cc3)c3cccc[n+]23)cc1 | inconclusive: 28.2 µM [inhibitor, partial curve] | –
CCS(=O)(=O)c1ccc(N=Nc2ccc(O)c3ncccc23)c(OC)c1 | active: 14.1 µM | –
CN(C1=NS(=O)(=O)c2ccccc21)c1ccc(OC(=O)c2ccncc2)cc1 | inconclusive: 17.8 µM [inhibitor, partial curve] | –
CC(=O)Nc1cccc(-c2csc(Nc3ccc(C)cn3)n2)c1 | – | inactive: -8.18%
O=C(C1CCCCC1)N1CCN=C1SCc1cccc([N+](=O)[O-])c1 | – | inactive: 3.94%
CCOC(=O)c1sc2nc3c(cc2c1N)COC(C)(CC)C3 (stereo not given) | inconclusive: 28.2 µM [inhibitor, partial curve] | –
O=C(Nc1ccc2nc(-c3ccco3)c(-c3ccco3)nc2c1)NC1CC1 | inconclusive: 28.2 µM [inhibitor, partial curve] | –
CC(=O)NNc1ncnc2c1cnn2-c1ccc(C)cc1 | inconclusive: 25.1 µM [inhibitor, single point] | –
Cc1ccc(C(CC(=O)N2CCCC2)c2ccccc2)c(O)c1C (stereo not given) | – | inactive: 2.8%
COc1ccccc1-c1nc(C#N)c(N2CCc3ccccc3C2)o1 | inconclusive: 28.2 µM [inhibitor, partial curve] | –
COc1ccc(C(C)=O)cc1COC(=O)c1cc(C)nc2ccccc12 | inconclusive: 28.2 µM [inhibitor, single point] | –

SMILES | Potency | activity change, negative = inhibition
CC(Nc1nc(N2CCNCC2)nc2ccccc12)c1ccccc1 (stereo not given) | inconclusive: 28.2 µM [inhibitor, partial curve] | –
COc1ccc(OC)c(/C=C/C(=O)OCC(=O)Nc2cccc(Oc3ccccc3)c2)c1 | inconclusive: 31.6 µM [inhibitor, partial curve] | –
CCC1C2CN(C(C)=O)CC=C2C(C#N)=C(N)C1(C#N)C#N (stereo not given) | inconclusive: 39.8 µM [inhibitor, single point] | –
Cn1c(N)c(C(=O)COC(=O)c2ccc(Cl)nc2)c(=O)n(C)c1=O | inconclusive: 35.5 µM [inhibitor, single point] | –
COc1ccccc1/C=C/C=N/NC(=O)CC1C(=O)NN=C1C (stereo not given) | inconclusive: 25.1 µM [inhibitor, single point] | –
COc1cccc(-c2nn(C)c3sc(C(=O)NCc4ccco4)cc23)c1 | inconclusive: 28.2 µM [inhibitor, partial curve] | –
O=c1oc2cc(OCc3nn[nH]n3)ccc2c2c1CCCC2 | inconclusive: 28.2 µM [inhibitor, partial curve] | –
Cc1cccc2cc(COC(=O)C3CCCO3)c(=O)[nH]c12 (stereo not given) | inconclusive: 31.6 µM [inhibitor, single point] | –
Cc1ccccc1NC(=O)CNc1ccccc1C(=O)NCc1ccco1 | inconclusive: 31.6 µM [inhibitor, partial curve] | –
C/C(Cc1ccccc1)=N\NC(=O)CNC(=O)c1ccccc1O | inconclusive: 39.8 µM [inhibitor, single point] | –
CC(C)c1ccc2oc3nc(N)c(C(=O)O)cc3c(=O)c2c1 | inconclusive: 31.6 µM [inhibitor, partial curve] | –
COc1ccc2c3c([nH]c2c1)C1CC2C(CC(O)C(OC)C2C(=O)O)CN1CC3 (stereo not given) | inconclusive: 25.1 µM [inhibitor, partial curve] | –
COc1ccc(NC(=O)Cn2ncc(Cl)c(Cl)c2=O)cc1S(=O)(=O)N1CCOCC1 | – | inactive: -16.7%
CNC(=S)N(CCc1c(C)[nH]c2ccc(OC)cc12)Cc1cccnc1 | inconclusive: 25.1 µM [inhibitor, single point] | –
N/C(Cc1ccc(Cl)cc1Cl)=N\OC(=O)c1ccc(Br)o1 | – | inactive: -17.4%
Cc1ccc2nc(-c3ccc(Br)o3)oc(=O)c2c1 | inconclusive: 39.8 µM [inhibitor, single point] | –
Oc1c(C=Nc2cccc3nsnc23)ccc2ccccc12 | – | inactive: -9.64%
CN(Cc1c(C(=O)N(C)Cc2ccccc2)nc2ccccn12)CC1Cc2ccccc2O1 (stereo not given) | – | inactive: -3.96%
COCCNC(=O)C1CC2Cn3c(nc4cc5ccccc5cc43)C2N1C (stereo not given) | inconclusive: 31.6 µM [inhibitor, single point] | –
CCc1cc2c(SCC(=O)NC3CCS(=O)(=O)C3)ncnc2s1 (stereo not given) | – | inactive: -1.17%
COC(=O)[C@H](CC(C)C)NC(=O)Nc1ccc(S(N)(=O)=O)cc1 | – | inactive: -0.0488%
NNC(=O)/C(=C\c1ccc(Br)cc1)NC(=O)c1cccs1 | – | inactive: -1%
COc1ccc(-n2c(C)cc(/C=C3\C(=O)NN(c4ccccc4)C3=O)c2C)cc1 | – | inactive: -9.37%
O=C(O)c1ccc(COc2ccccc2C=C2C(=O)c3ccccc3C2=O)cc1 | inconclusive: 8.91 µM [inhibitor, partial curve] | –

SMILES | Potency | activity change, negative = inhibition
CC(=O)N(Cc1ccccc1)c1ncc2c(n1)c(=O)c(C#N)c1ccccn12 | inconclusive: 31.6 µM [inhibitor, single point] | –
CN(C)/C=C1\Cc2ccccc2C1=O | inconclusive: 31.6 µM [inhibitor, single point] | –
CN(C(=S)Nc1cccnc1)c1ccc(O)cc1 | inconclusive: 35.5 µM [inhibitor, partial curve] | –
Brc1ccc(-c2nc3ccccc3s2)s1 | inconclusive: 28.2 µM [inhibitor, partial curve] | –
Cc1cnc(CNc2ncncc2-c2ccccc2C(F)(F)F)cn1 | inconclusive: 25.1 µM [inhibitor, partial curve] | –
COc1ccc(OC)c(N2Cc3cc(C)c(C)cc3C2)c1 | inconclusive: 20 µM [inhibitor, single point] | –
CCN(CC)S(=O)(=O)c1cccc(NC(=O)CNC2CCCCCC2)c1 | inconclusive: 17.8 µM [inhibitor, single point] | –
COc1ccc([N+](=O)[O-])cc1NC(=O)C(C)N1CCN(C(=O)c2ccco2)CC1 (stereo not given) | – | inactive: -2.61%
CCOC(=O)c1sc(N)c(C(=O)OCC)c1COC(=O)C1CC(=O)N(Cc2ccco2)C1 (stereo not given) | – | inactive: -6.44%
C[C@@H](Oc1ccccc1)c1nnn(Cc2ccccc2)c1-c1c([C@@H](C)Oc2ccccc2)nnn1Cc1ccccc1 | – | inactive: -12.5%
COC(=O)C1=CN(C)C=C(C(=O)OC)C1c1ccsc1 | inconclusive: 28.2 µM [inhibitor, partial curve] | –
CCCn1c(-c2ccc(F)cc2)nc2c(N3CCC(N(C)C)C3)nc(C)nc21 (stereo not given) | inconclusive: 35.5 µM [inhibitor, partial curve] | –
CCN1C(=O)C(CC(=O)Nc2ccc(OC)cc2)N(CCc2ccc(OC)cc2)C1=S (stereo not given) | – | inactive: -6.6%
COc1cccc(/C=C/C(=O)OCC(=O)NCC2CCCO2)c1 (stereo not given) | inconclusive: 31.6 µM [inhibitor, partial curve] | –
OCCNCCSc1ccc(Cl)cc1 | inconclusive: 25.1 µM [inhibitor, single point] | –
CCOC(=O)c1ccc(NC(=O)COc2cc3oc(=O)c(CC(C)O)c(C)c3cc2Cl)cc1 (stereo not given) | inconclusive: 3.16 µM [inhibitor, partial curve] | –
Nc1nnc(-c2ccc(Cl)c(Cl)c2)s1 | inconclusive: 25.1 µM [inhibitor, partial curve] | –
CCOc1ccc(NC(=O)CSc2nc3ccccc3c(=O)n2CCNC(C)=O)cc1 | – | inactive: -5.43%
CCNC(=O)CSc1nnc(-c2cccc(S(=O)(=O)N(CC)CC)c2)n1CCc1ccccc1 | inconclusive: 22.4 µM [inhibitor, partial curve] | –
N#Cc1c(-c2ccncc2)c2c([nH]c1=O)-c1ccccc1OC2 | inconclusive: 14.1 µM [inhibitor, partial curve] | –
O=C(c1ccco1)N(Cc1cc2ccccc2[nH]c1=O)CC1CCCO1 (stereo not given) | inconclusive: 39.8 µM [inhibitor, single point] | –
Cc1ccc(S(=O)(=O)N(C)C)cc1NC(=O)c1cccnc1Oc1ccccc1 | inconclusive: 39.8 µM [inhibitor, single point] | –
